Measurements reported in US10299477B2 (priority 2015, dated 2019).

Assays:
Assay type in all cases: in vivo
[1] = tested on: Botrytis cinerea; experiment: Test Example B: Gray mold on tomato
From the text: [Test Example B] Gray Mold on Tomato
Seeds of a test plant (tomato variety: Oogata Fukuju) were planted followed by cultivating until three to five first leaves (true leaves) appeared.

[2] = tested on: Alternaia brassicicola; experiment: Test Example C: Alternaria sooty spot on cabbage
From the text: [Test Example C] Alternaria Sooty Spot on Cabbage
Seeds of a test plant (cabbage variety: Shikidori) were planted followed by cultivating until the cotyledons extended.

[3] = tested on: Blumeria graminis f sp. hordei; experiment: Test Example D: Powdery mildew on barley
From the text: [Test Example D] Powdery Mildew on Barley
After the sprayed dilutions were dried, conidia of Blumeria graminis f sp. hordei were inoculated to the plants by shaking off.

[4] = tested on: Puccinia recondita; experiment: Test Example E: Brown rust on wheat
From the text: [Test Example E] Brown Rust on Wheat

[5] = tested on: Plasmopara viticola; experiment: Test Example G: Downy mildew on vine
From the text: [Test Example G] Downy Mildew on Vine
Seeds of a test plant (grape variety: Neomuscat) were planted followed by cultivating until three to four first leaves appeared. […] After the sprayed dilutions were dried, a zoosporangia suspension (1-2×10^4 zoosporangia/ml) of Plasmopara viticola was inoculated to the plants by spraying.

[6] = 250 ppm spray, preventive, control value class

CCn1c(-c2c(F)cccc2F)c(-c2ccc(Br)cc2)ccc1=O [Compound 292]
Test B control value (gray mold on tomato) [1, 6]: H (H shows more than 50% of control values)
Test C control value (Alternaria sooty spot on cabbage) [2, 6]: H (H shows more than 50% of control values)
Test D control value (powdery mildew on barley) [3, 6]: H (H shows more than 50% of control values)
Test E control value (brown rust on wheat) [4, 6]: H (H shows more than 50% of control values)
Test G control value (downy mildew on vine) ([5]; 250 ppm spray (2.5 ml/pot), preventive, 7-10 days after inoculation, control value class): L (L shows 50% or less of control values)

CCn1c(-c2c(F)cc(OC)cc2F)c(-c2cc(F)c(F)cc2F)cc(Cl)c1=O [Compound 637]
Test B (control value class, gray mold on tomato) ([1]; in vivo): H (H shows more than 50% of control values)
Test C (control value class, Alternaria sooty spot on cabbage) ([2]; in vivo): H (H shows more than 50% of control values)
Test D (control value class, powdery mildew on barley) ([3]; in vivo): H (H shows more than 50% of control values)
Test E (control value class, brown rust on wheat) ([4]; in vivo): H (H shows more than 50% of control values)
Test G (control value class, downy mildew on vine) ([5]; 250 ppm, sprayed 2.5 ml/pot before inoculation, evaluated 7-10 days after inoculation): H (H shows more than 50% of control values)
